In the supplement of paper PMC11283458 one finds B-score data, which are given here for 39 compounds.

The subject of test [1] is Mef2d microexon dual Nano/Firefly luciferase splicing reporter in Neuro-2a cells. As to the kind of experiment: B-score of Firefly/Nano luminescence ratio, V1 Mef2d microexon reporter (B-score (plate-normalised)); higher = more Mef2d microexon inclusion. To be noted: 24 h.
The test system is the same in test [2]. In words: B-score of Nano/Firefly luminescence ratio, V2 Mef2d microexon reporter (B-score (plate-normalised)); higher = more Mef2d microexon inclusion. To be noted: 24 h.

Structures can show the parent of a compound that is named as a salt. The list shows a part of the results. Repeats are few or missing, and single values can be far off.
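Throughout, for B-score of Nano/Firefly luminescence ratio, V2 Mef2d microexon reporter: compounds at 4 µM (PKI library 0.5 µM) on Dox-inducible N2A Flp-In cells with PEST-tagged luciferases, 384-well plates, B-score from per-plate median-polish residual over median absolute residual.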

With `CCN(CC)C(=S)NC(=S)c1ccc(C)cc1` (4 µM), the B-score in test [1] is -0.337; in test [2], 34.8.

In the case of `N#Cc1c(Cl)c(Cl)c(Cl)c(Cl)c1C#N` (4 µM), the B-score in test [1] is -17.7; in test [2], 6.26.

With `Cc1onc(-c2c(F)cccc2Cl)c1C(N)=NOC(=O)c1c(-c2c(Cl)cccc2Cl)noc1C` (4 µM), the B-score in test [1] amounted to 3.92; in test [2], 2.93.

Take `N#CC(C#N)=NNc1ccc2c(c1)OCCO2` (4 µM): the B-score in test [1] is -2.32; in test [2], -5.33.

As to `Cc1cccc(Nc2cc(Nc3ccc4c(c3)n(C)c(=O)n4C)ncn2)c1` (4 µM), the B-score in test [1] was -6.2; in test [2], -2.26.

`CC1(C)CC(Nc2ccc(Nc3ccccc3)cc2)CC(C)(C)N1` (4 µM): the results for the B-score in test [1] and in test [2] were 5.59 and 1.25, respectively.

For the compound `O=C(C=C(C(=O)c1ccccc1)c1ccccc1)c1ccc2c(c1)OCCO2` (4 µM), the figures for the B-score in test [1] and in test [2] were -4.57 and -2.36, respectively.

As for `Cc1ccc(NC(=O)CC2Sc3ccccc3NC2=O)c([N+](=O)[O-])c1` (stereo not drawn) (4 µM), the figures for the B-score in test [1] and in test [2] were 2.19 and 3.62, respectively.

In the case of `Cc1ccn2c(-c3csc(Nc4ccc(N(C)C)cc4)n3)c(C)nc2c1` (4 µM), the B-score in test [1] is -8.23; in test [2], -10.2.

In the case of `CC1=CC(=O)C=C(C)C1=NOC(=O)c1ccccc1Br` (4 µM), the B-score in test [1] was -1.42; in test [2], -1.91.

Take `NC(CCS(=O)(=O)c1ccc(Cl)cc1)=NOC(=O)c1ccccc1C(F)(F)F` (4 µM): the B-score in test [1] was 6.5; in test [2] it was 8.3.

For `Cc1cc(Nc2cc(N3CCN(C)CC3)nc(Sc3ccc(NC(=O)C4CC4)cc3)n2)n[nH]1` [VX-680, MK-0457, Tozasertib, VX6] (0.5 µM), the B-score is -4.01 in test [1] and -4.36 in test [2].

On to `O=[N+]([O-])c1ccc(/C=N\Nc2ncnc3sc4c(c23)CCCC4)o1` (4 µM), for which the values for the B-score in test [1] and in test [2] were 3.9 and 6.52, respectively.

On to `C=CCn1c(=O)c2cnc(Nc3ccc(N4CCN(C)CC4)cc3)nc2n1-c1cccc(C(C)(C)O)n1` (0.5 µM), for which the values for the B-score in test [1] and in test [2] were -4.07 and -4.63, respectively.

As for `NCCCS(=O)(=O)O` [3-Amino-1-propanesulfonic acid sodium] (4 µM), the results for the B-score in test [1] and in test [2] were -4.59 and -2.85, respectively.

As for `COc1ccc(C(=O)ON=C(N)COc2ccc(Cl)cc2Cl)cc1` (4 µM), the B-score in test [1] was -10.8; in test [2], -0.684.

Consider `O=C(Nc1ncc(-c2cc(C(F)F)nn2-c2c(Cl)cccc2Cl)s1)C1CC1` (0.5 µM), for which the figures for the B-score in test [1] and in test [2] were -4.32 and -4.89, respectively.

Consider `COc1ccc(C2C3CCCC=C3C(C#N)=C(N)C2(C#N)C#N)c(OC)c1` (stereo not drawn) (4 µM), for which the B-score in test [1] is -1.6; in test [2], -5.8.

As for `N#Cc1c(O)nsc1Nc1ccc(Cl)cc1` (4 µM), the B-score was -2.19 in test [1] and -1.29 in test [2].

Consider `CCOC(=O)c1cc(C#N)c(Sc2ccc(Cl)cc2)nc1C(F)(F)F` (4 µM), for which the B-score in test [1] amounted to 9.09; in test [2] it was 0.216.

Consider `CC(C)c1ccc(NC(=O)CSc2nnc(-c3cc(OCC(F)(F)F)ccc3OCC(F)(F)F)o2)cc1` (4 µM), for which the B-score in test [1] was 4.09; in test [2] it was 3.76.

With `O=[N+]([O-])c1cccnc1NCC1COc2ccccc2O1` (stereo not drawn) (4 µM), the B-score in test [1] was -1.39; in test [2], -2.37.

For the compound `O=C(c1cnn(C(=O)c2nn(-c3ccc(Cl)cc3)cc2O)c1)c1ccccc1O` (4 µM), the B-score in test [1] is -7.79; in test [2], -9.18.

On to `COc1ccccc1N1CCN(C(=O)c2cc(OC)c(OC)c(OC)c2)CC1` (4 µM), for which the figures for the B-score in test [1] and in test [2] were -7.33 and -7.27, respectively.

Turning to `O=C1C(Cl)=C(Nc2ccc(O)cc2)C(=O)c2ccccc21` (4 µM), the values for the B-score in test [1] and in test [2] were 6.07 and 2.21, respectively.

With `COc1cc(Nc2ncc3c(n2)-c2ccc(Cl)cc2C(c2c(F)cccc2OC)=NC3)ccc1C(=O)O` [MLN-8237, Alisertib] (0.5 µM), the results for the B-score in test [1] and in test [2] were -2.27 and -4.54, respectively.

On to `Cc1onc(-c2ccccc2)c1C(=O)ON=C(Cc1ccccc1)Cc1ccccc1` (4 µM), for which the B-score in test [1] was 8.36; in test [2], 3.19.

In the case of `O=C(NOC[C@H](O)CO)c1ccc(F)c(F)c1Nc1ccc(I)cc1F` (0.5 µM), the B-score in test [1] was determined as 4.57; in test [2], 3.8.

As to `O=c1c(Cc2ccccc2Cl)c(-c2ccccc2)oc2ccccc12` (4 µM), the B-score in test [1] was 2.44; in test [2], 4.36.

Consider `COc1ccc(C(=O)C(C#N)=Cc2ccc(O)cc2)cc1` (4 µM), for which the figures for the B-score in test [1] and in test [2] were 11.7 and 1.17, respectively.

On to `Cn1cnc([N+](=O)[O-])c1Sc1ncnc2nc[nH]c12` (4 µM), for which the B-score in test [1] is -6.59; in test [2] it was -2.47.

With `CCN(CC)CCOC(=O)C1(c2ccc([N+](=O)[O-])cc2)CCCC1` [Nitrocaramiphen hydrochloride] (4 µM), the B-score in test [1] is 27.8; in test [2], 15.7.

Take `Cc1cc(I)ccc1N1C(=O)C=CC1=O` (4 µM): the B-score in test [1] is 5.23; in test [2] it was 3.53.

For the compound `O=C(CC1NCCN(Cc2ccccc2)C1=O)Nc1ccccc1` (stereo not drawn) (4 µM), the B-score is -1.43 in test [1] and -8.24 in test [2].

Regarding `CNS(=O)(=O)Nc1nccc(Cc2c(C)c3ccc(Oc4ncccn4)cc3oc2=O)c1F` (0.5 µM), the B-score in test [1] is 5.13; in test [2], 4.44.

For `O=C(NOCC(O)CO)c1cc(Br)c(F)c(F)c1Nc1ccc(I)cc1F` (stereo not drawn) (0.5 µM), the B-score was 4.78 in test [1] and 4.43 in test [2].

For `CC(=O)OCC1OC(Oc2ccc(CC(=O)c3ccccc3)cc2)C(OC(C)=O)C(OC(C)=O)C1OC(C)=O` (stereo not drawn) (4 µM), the B-score was found to be 4.19 in test [1] and 0.937 in test [2].

Take `CC(C)c1ccc(C(=O)c2cccs2)c(SCCCCCCCCN(C)C)n1` (4 µM): the B-score in test [1] is -3.32; in test [2], -5.79.

As to `CC(=O)Nc1ccc(-c2ccc(NC(C)=O)cc2)cc1` (4 µM), the B-score in test [1] was -3.82; in test [2], -4.66.
